Source: patent US20260116991A1 (HAINAN SIMCERE ZAIMING PHARMACEUTICAL, published 2026)
Where “and” joins values, the source holds several entries; their conditions need not be identical. Equal values may be shown once. Values belong to the binder of their own block, whether it stands above or below them.

Tests used:
[1] = biological target: T1, human GPC3-His protein (human, UniProt P51654 25-559); assay: ELISA, coated human GPC3, antibody 0.01 nM;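 note: Plate-bound antigen coated at 1 µg/mL, antibody incubated 2 h at 37 °C, binding detected by HRP-conjugated secondary antibody with TMB substrate, read as absorbance at 450 nm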
T1 construct: Bought protein; also called human GPC3 protein; not shown: His tag

[2] = biological target: T1, human GPC3-His protein; assay: ELISA, coated human GPC3, antibody 1 nM;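 note: antigen coated at 1 µg/mL on 96-well plates, antibody bound for 2 h at 37 °C, detected with HRP-labeled secondary antibody and TMB, absorbance read at 450 nm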
[3] = biological target: T1, human GPC3-His protein; assay: ELISA, coated human GPC3, antibody 100 nM;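 note: antibodies bound to antigen-coated 96-well plates (1 µg/mL), 2 h at 37 °C, detected with HRP-labelled secondary antibody and TMB substrate, absorbance read at 450 nm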
[4] = biological target: T2, human GPC3 on CHO-K1-human GPC3 cells (clone CHOK1-hGPC3.2B5) (human, UniProt P51654 25-554); assay: FACS on CHOK1-hGPC3.2B5 cells;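 note: flow cytometry binding of chimeric antibodies to the cells, read out as mean fluorescence intensity, with the half-maximal concentration derived by curve fitting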
T2 construct: whole, on cells; Stably transfected CHO-K1 clone 2B5

[5] = biological target: T3, GPC3 endogenously expressed on HepG2 cells (UniProt P51654 25-554); assay: FACS on HepG2 cells;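 note: flow cytometric binding of chimeric antibodies to cells, read as mean fluorescence intensity, EC50 obtained by curve fitting of the MFI data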
T3 construct: whole, on cells

[6] = biological target: T1, human GPC3-His protein; assay: ELISA, coated human GPC3, antibody 0.001 nM
[7] = biological target: T1, human GPC3-His protein; assay: ELISA, coated human GPC3, antibody 10 nM;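 note: plate coated with antigen at 1 µg/mL, antibodies bound 2 h at 37 °C, detected via HRP-conjugated secondary antibody and TMB substrate, absorbance read after acid stop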
[8] = biological target: T1, human GPC3-His protein; assay: ELISA, coated human GPC3, antibody 0.0001 nM
[9] = biological target: T1, human GPC3-His protein; assay: ELISA, coated human GPC3, antibody 0.1 nM;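 note: antigen coated on 96-well plates at 1 µg/mL, antibody bound 2 h at 37 °C, detected with HRP-labeled secondary antibody and TMB substrate, acid-stopped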
[10] = biological target: T4, polypeptide GC3pep (human); assay: ELISA, GC3pep coated, antibody 1 nM;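 note: bound antibody detected with an HRP-conjugated secondary antibody and TMB substrate, reaction stopped with HCl, after 2 h binding at 37 °C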
T4 construct: also called membrane proximal polypeptide GC3pep
T4 peptide: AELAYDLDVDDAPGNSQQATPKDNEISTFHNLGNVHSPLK

[11] = biological target: T4, polypeptide GC3pep; assay: ELISA, GC3pep coated, antibody 0.001 nM
[12] = biological target: T4, polypeptide GC3pep; assay: ELISA, GC3pep coated, antibody 0.0001 nM
[13] = biological target: T4, polypeptide GC3pep; assay: ELISA, GC3pep coated, antibody 0.01 nM;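 note: bound antibody detected with an HRP-conjugated secondary antibody and TMB substrate, color reaction stopped with HCl before reading absorbance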
[14] = biological target: T4, polypeptide GC3pep; assay: ELISA, GC3pep coated, antibody 100 nM;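 note: detection with an HRP-conjugated secondary antibody and TMB substrate, color reaction stopped with HCl before absorbance reading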
[15] = biological target: T4, polypeptide GC3pep; assay: ELISA, GC3pep coated, antibody 10 nM;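 note: antibody bound to the coated peptide for 2 h at 37 °C, detected through an HRP-conjugated secondary antibody with TMB colour development stopped by acid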
[16] = biological target: T4, polypeptide GC3pep; assay: ELISA, GC3pep coated, antibody 0.1 nM;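 note: antibody allowed to bind the coated plate 2 h at 37 °C, then detected via HRP-conjugated secondary antibody and TMB development for 10 min, stopped with HCl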
[17] = biological target: T5, human GPC3-His protein (human, UniProt P51654 25-559); assay: SPR, antibody captured on Protein A chip, human GPC3-His analyte;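 note: measured at 25 °C flow cell, human GPC3-His injected at five concentrations up to 200 nM, 240 s association, up to 600 s dissociation, double-referenced, fitted to Langmuir 1:1 model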
T5 construct: also called human GPC3 protein; not shown: His tag

[18] = biological target: T6, monkey GPC3-His protein (monkey); assay: SPR, antibody captured on Protein A chip, monkey GPC3-His analyte;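 note: run at 25 °C with 240 s association and up to 600 s dissociation, double-referenced, kinetics fitted to a 1:1 Langmuir binding model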
T6 construct: Bought recombinant protein; also called monkey GPC3 protein

[19] = biological target: T6, monkey GPC3-His protein; assay: ELISA, monkey GPC3-His coated;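 note: Plate-coated antigen at 1 µg/mL, antibody binding 2 h at 37 °C, detected with HRP-labeled secondary antibody and TMB, absorbance at 450 nm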
[20] = biological target: T7, murine GPC3-His protein (Sino Biological, Cat. No. 50989-M08B) (murine, UniProt Q8CFZ4 25-558); assay: ELISA, coated antigen
T7 construct: Bought protein; also called murine GPC3 protein; mouse GPC3-his protein; not shown: His tag
T7 sequence (Q8CFZ4 25-558 limits assumed): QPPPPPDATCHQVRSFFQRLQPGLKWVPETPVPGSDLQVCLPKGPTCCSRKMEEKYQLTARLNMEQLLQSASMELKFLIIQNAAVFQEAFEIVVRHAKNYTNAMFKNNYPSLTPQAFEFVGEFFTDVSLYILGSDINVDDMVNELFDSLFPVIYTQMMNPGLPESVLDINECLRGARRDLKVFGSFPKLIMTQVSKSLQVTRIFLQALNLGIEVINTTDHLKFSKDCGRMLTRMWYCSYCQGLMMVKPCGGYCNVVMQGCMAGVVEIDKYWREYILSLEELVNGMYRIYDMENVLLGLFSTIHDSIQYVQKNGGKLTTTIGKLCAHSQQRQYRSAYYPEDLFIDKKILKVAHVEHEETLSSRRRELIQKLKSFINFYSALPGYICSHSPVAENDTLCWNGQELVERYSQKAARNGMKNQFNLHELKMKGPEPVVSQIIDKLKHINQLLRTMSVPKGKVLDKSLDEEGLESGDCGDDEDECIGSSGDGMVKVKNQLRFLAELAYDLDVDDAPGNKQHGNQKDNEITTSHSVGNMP

- OD450 nm [1]: 0.34 OD450
- OD450 nm [2]: 2.37 OD450
- OD450 nm [3]: 2.64 OD450
- EC50 [4]: 2.06 nM and 1.72 nM and 3.22 nM
- EC50 [5]: 3.93 nM and 2.25 nM and 6.36 nM
- OD450 nm [6]: 0.12 OD450
- OD450 nm [7]: 2.59 OD450
- OD450 nm [8]: 0.1 OD450
- OD450 nm [9]: 1.49 OD450
B1: Y035 scFv-hFc (Fc fusion)
scFv: DIVMTQTPLSLPVITGEPASISCRSSQSLVHSNGNTYLQWYLQKPGQSPQLLIYKVSNRFSGVPDRFSGSGSGTDFTLKISRVEAEDVGVYYCSQSIYVPYTFGQGTKLEIKRGGGGSGGGGSGGGGSEVQLVQSGAEVKKPGASVKVSCKASGYTFSDYEMHWVRQAPGQGLEWMGAIHPGSGDTAYNQRFKGRVTITADKSTSTAYMELSSLRSEDTAVYYCARFYSYAYWGQGTLVTVSA[human IgG1 Fc with changes not shown]
notes: Control antibody

- OD450 nm [10]: 2.2 OD450 nm
- OD450 nm [11]: 0.05 OD450 nm
- OD450 nm [12]: 0.05 OD450 nm
- OD450 nm [13]: 0.17 OD450 nm
- OD450 nm [14]: 2.7 OD450 nm
- OD450 nm [15]: 2.5 OD450 nm
- OD450 nm [16]: 0.94 OD450 nm
B2: Y035 scFv-hFc (Fc fusion)
scFv: DIVMTQTPLSLPVITGEPASISCRSSQSLVHSNGNTYLQWYLQKPGQSPQLLIYKVSNRFSGVPDRFSGSGSGTDFTLKISRVEAEDVGVYYCSQSIYVPYTFGQGTKLEIKRGGGGSGGGGSGGGGSEVQLVQSGAEVKKPGASVKVSCKASGYTFSDYEMHWVRQAPGQGLEWMGAIHPGSGDTAYNQRFKGRVTITADKSTSTAYMELSSLRSEDTAVYYCARFYSYAYWGQGTLVTVSA[human IgG1 Fc with changes not shown]
notes: control antibody, made as scFv-human IgG1 Fc

- Kd [17]: 2.36 nM
- koff [17]: 0.000365 s⁻¹
- kon [17]: 155000 M⁻¹ s⁻¹
- Kd [18]: 1.75 nM
- koff [18]: 0.000365 s⁻¹
- kon [18]: 209000 M⁻¹ s⁻¹
- OD450 at 0.0001 nM [19]: 0.05 OD450
- OD450 at 0.001 nM [19]: 0.08 OD450
- OD450 at 0.01 nM [19]: 0.35 OD450
- OD450 at 0.1 nM [19]: 1.79 OD450
- OD450 at 1 nM [19]: 2.32 OD450
- OD450 at 10 nM [19]: 2.6 OD450
- OD450 at 100 nM [19]: 2.64 OD450
B3: Y035 scFv-hFc (Fc fusion)
chain: DIVMTQTPLSLPVITGEPASISCRSSQSLVHSNGNTYLQWYLQKPGQSPQLLIYKVSNRFSGVPDRFSGSGSGTDFTLKISRVEAEDVGVYYCSQSIYVPYTFGQGTKLEIKRGGGGSGGGGSGGGGSEVQLVQSGAEVKKPGASVKVSCKASGYTFSDYEMHWVRQAPGQGLEWMGAIHPGSGDTAYNQRFKGRVTITADKSTSTAYMELSSLRSEDTAVYYCARFYSYAYWGQGTLVTVSA[human IgG1 Fc with changes not shown]

- binding result [20]: no binding (tested: 100 nM)
B4: Y035 scFv-hFc (Fc fusion)
scFv: DIVMTQTPLSLPVITGEPASISCRSSQSLVHSNGNTYLQWYLQKPGQSPQLLIYKVSNRFSGVPDRFSGSGSGTDFTLKISRVEAEDVGVYYCSQSIYVPYTFGQGTKLEIKRGGGGSGGGGSGGGGSEVQLVQSGAEVKKPGASVKVSCKASGYTFSDYEMHWVRQAPGQGLEWMGAIHPGSGDTAYNQRFKGRVTITADKSTSTAYMELSSLRSEDTAVYYCARFYSYAYWGQGTLVTVSA[human IgG1 Fc with changes not shown]
notes: Control antibody; also called antibody Y035
